# From the supplement of paper PMC8728848
# This is one part of the list.
# B1: MpAFP NterminalRI GFP (Marinomonas primoryensis) (protein)
# chain: MSDNQFPFATLGNAIGFITKLDGSVTVQSIDGQERVLKLGDPIFFGETVLTGGSGSVTIAFVDGTDVVIGGDSIVEMTDEIYNTGDNEDLVADSSSEIDALQNAILAGDDPTLIQDAPAAGNTLADQQRVDVSIERNDNSAQAGFGVDTQSSLPTYGYDTDNGNGGQATEREYSAPSLSRTLNQSPLLEHHHHHH
# How the values were obtained:
# Experiment in all cases: glycan array binding signal (z-score within array); higher = stronger binding
# Conditions in all cases: glycan notation: IUPAC condensed, linker removed
# [1] = target: Fuc(a1-2)Gal(b1-4)[Fuc(a1-3)]GlcNAc
# Method in brief: (§1)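 From the Consortium for Functional Glycomics database, 3228 arrays were curated, keeping only those whose protein sequence was available. Binding is given as a within-array Z-score averaged across arrays sharing a protein sequence and across linkers. Negative Z-scores can be read as non-binding.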
# [2] = target: Fuc(a1-2)Gal(b1-4)[Fuc(a1-3)]GlcNAc(b1-2)Man(a1-3)[Fuc(a1-2)Gal(b1-4)[Fuc(a1-3)]GlcNAc(b1-2)Man(a1-6)]Man(b1-4)GlcNAc(b1-4)[Fuc(a1-6)]GlcNAc
# Method in brief: as §1
# [3] = target: Fuc(a1-2)Gal(b1-4)[Fuc(a1-3)]GlcNAc(b1-2)[Fuc(a1-2)Gal(b1-4)[Fuc(a1-3)]GlcNAc(b1-4)]Man(a1-3)[Fuc(a1-2)Gal(b1-4)[Fuc(a1-3)]GlcNAc(b1-2)Man(a1-6)]Man(b1-4)GlcNAc(b1-4)GlcNAc
# Method in brief: as §1
# [4] = target: Fuc(a1-2)Gal(b1-4)[Fuc(a1-3)]GlcNAc(b1-3)Gal(b1-4)[Fuc(a1-3)]GlcNAc
# Method in brief: as §1
# [5] = target: Fuc(a1-2)Gal(b1-4)[Fuc(a1-3)]GlcNAc(b1-3)Gal(b1-4)[Fuc(a1-3)]GlcNAc(b1-3)Gal(b1-4)[Fuc(a1-3)]GlcNAc
# Method in brief: as §1
# [6] = target: Fuc(a1-2)Gal(b1-4)[Fuc(a1-3)]GlcNAc(b1-3)GalNAc
# Method in brief: as §1
# [7] = target: Fuc(a1-2)Gal(b1-4)[Fuc(a1-3)]GlcNAc(b1-3)[Neu5Ac(a2-6)Gal(b1-4)GlcNAc(b1-6)]Gal(b1-4)Glc
# Method in brief: as §1
# [8] = target: Fuc(a1-2)Gal3S(b1-4)GlcNAc
# Method in brief: as §1
# [9] = target: Fuc(a1-2)Gal6S(b1-3)GlcNAc
# Method in brief: as §1
# [10] = target: Fuc(a1-2)Gal6S(b1-3)GlcNAc6S
# Method in brief: as §1
# Fuc(a1-2)Gal6S(b1-4)Glc = target: Fuc(a1-2)Gal6S(b1-4)Glc
# Method in brief: as §1
# [11] = target: Fuc(a1-2)Gal6S(b1-4)Glc6S
# Method in brief: as §1
# Fuc(a1-2)[Gal(a1-3)]Gal = target: Fuc(a1-2)[Gal(a1-3)]Gal
# Method in brief: as §1
# [12] = target: Fuc(a1-2)[Gal(a1-3)]Gal(b1-3)GalNAc
# Method in brief: as §1
# [13] = target: Fuc(a1-2)[Gal(a1-3)]Gal(b1-3)GalNAc(b1-3)Gal(a1-4)Gal(b1-4)Glc
# Method in brief: as §1
# [14] = target: Fuc(a1-2)[Gal(a1-3)]Gal(b1-3)GlcNAc
# Method in brief: as §1
# [15] = target: Fuc(a1-2)[Gal(a1-3)]Gal(b1-3)GlcNAc(b1-2)Man(a1-3)[Fuc(a1-2)[Gal(a1-3)]Gal(b1-3)GlcNAc(b1-2)Man(a1-6)]Man(b1-4)GlcNAc(b1-4)GlcNAc
# Method in brief: as §1
# [16] = target: Fuc(a1-2)[Gal(a1-3)]Gal(b1-3)GlcNAc(b1-2)Man(a1-3)[Fuc(a1-2)[Gal(a1-3)]Gal(b1-3)GlcNAc(b1-2)Man(a1-6)]Man(b1-4)GlcNAc(b1-4)[Fuc(a1-6)]GlcNAc
# Method in brief: as §1
# [17] = target: Fuc(a1-2)[Gal(a1-3)]Gal(b1-3)GlcNAc(b1-3)GalNAc
# Method in brief: as §1
# [18] = target: Fuc(a1-2)[Gal(a1-3)]Gal(b1-3)GlcNAc(b1-6)GalNAc
# Method in brief: as §1
# [19] = target: Fuc(a1-2)[Gal(a1-3)]Gal(b1-4)Glc
# Method in brief: as §1
# [20] = target: Fuc(a1-2)[Gal(a1-3)]Gal(b1-4)GlcNAc
# Method in brief: as §1
# [21] = target: Fuc(a1-2)[Gal(a1-3)]Gal(b1-4)GlcNAc(b1-2)Man
# Method in brief: as §1
# [22] = target: Fuc(a1-2)[Gal(a1-3)]Gal(b1-4)GlcNAc(b1-2)Man(a1-3)[Fuc(a1-2)[Gal(a1-3)]Gal(b1-4)GlcNAc(b1-2)Man(a1-6)]Man(b1-4)GlcNAc(b1-4)GlcNAc
# Method in brief: as §1
# [23] = target: Fuc(a1-2)[Gal(a1-3)]Gal(b1-4)GlcNAc(b1-2)Man(a1-3)[Fuc(a1-2)[Gal(a1-3)]Gal(b1-4)GlcNAc(b1-2)Man(a1-6)]Man(b1-4)GlcNAc(b1-4)[Fuc(a1-6)]GlcNAc
# Method in brief: as §1
# [24] = target: Fuc(a1-2)[Gal(a1-3)]Gal(b1-4)GlcNAc(b1-3)GalNAc
# Method in brief: as §1
# [25] = target: Fuc(a1-2)[Gal(a1-3)]Gal(b1-4)GlcNAc(b1-3)[Fuc(a1-2)[Gal(a1-3)]Gal(b1-4)GlcNAc(b1-6)]GalNAc
# Method in brief: as §1
# [26] = target: Fuc(a1-2)[Gal(a1-3)]Gal(b1-4)GlcNAc(b1-6)GalNAc
# Method in brief: as §1
# [27] = target: Fuc(a1-2)[Gal(a1-3)]Gal(b1-4)[Fuc(a1-3)]Glc
# Method in brief: as §1
# [28] = target: Fuc(a1-2)[Gal(a1-3)]Gal(b1-4)[Fuc(a1-3)]GlcNAc
# Method in brief: as §1
# [29] = target: Fuc(a1-2)[Gal(a1-3)]Gal(b1-4)[Fuc(a1-3)]GlcNAc(b1-3)GalNAc
# Method in brief: as §1
# [30] = target: Fuc(a1-2)[Gal(a1-4)]Gal(b1-4)GlcNAc
# Method in brief: as §1
# [31] = target: Fuc(a1-2)[GalNAc(a1-3)]Gal
# Method in brief: as §1
# [32] = target: Fuc(a1-2)[GalNAc(a1-3)]Gal(b1-3)GalNAc(a1-3)[Fuc(a1-2)]Gal(b1-4)GlcNAc
# Method in brief: as §1
# [33] = target: Fuc(a1-2)[GalNAc(a1-3)]Gal(b1-3)GalNAc(b1-3)Gal(a1-4)Gal(b1-4)Glc
# Method in brief: as §1
# [34] = target: Fuc(a1-2)[GalNAc(a1-3)]Gal(b1-3)GlcNAc
# Method in brief: as §1
# [35] = target: Fuc(a1-2)[GalNAc(a1-3)]Gal(b1-3)GlcNAc(b1-2)Man(a1-3)[Fuc(a1-2)[GalNAc(a1-3)]Gal(b1-3)GlcNAc(b1-2)Man(a1-6)]Man(b1-4)GlcNAc(b1-4)GlcNAc
# Method in brief: as §1
# [36] = target: Fuc(a1-2)[GalNAc(a1-3)]Gal(b1-3)GlcNAc(b1-2)Man(a1-3)[Fuc(a1-2)[GalNAc(a1-3)]Gal(b1-3)GlcNAc(b1-2)Man(a1-6)]Man(b1-4)GlcNAc(b1-4)[Fuc(a1-6)]GlcNAc
# Method in brief: as §1
binder,measurement,setting,value
B1,glycan array binding signal (z-score),[1],-0.237
same,glycan array binding signal (z-score),[2],0.532
same,glycan array binding signal (z-score),[3],0.393
same,glycan array binding signal (z-score),[4],-0.147
same,glycan array binding signal (z-score),[5],-0.322
same,glycan array binding signal (z-score),[6],0.29
same,glycan array binding signal (z-score),[7],-0.416
same,glycan array binding signal (z-score),[8],-0.495
same,glycan array binding signal (z-score),[9],-0.059
same,glycan array binding signal (z-score),[10],0.041
same,glycan array binding signal (z-score),Fuc(a1-2)Gal6S(b1-4)Glc,-0.519
same,glycan array binding signal (z-score),[11],-0.356
same,glycan array binding signal (z-score),Fuc(a1-2)[Gal(a1-3)]Gal,-0.494
same,glycan array binding signal (z-score),[12],0.413
same,glycan array binding signal (z-score),[13],-0.022
same,glycan array binding signal (z-score),[14],-0.192
same,glycan array binding signal (z-score),[15],-0.171
same,glycan array binding signal (z-score),[16],-0.062
same,glycan array binding signal (z-score),[17],-0.352
same,glycan array binding signal (z-score),[18],-0.004
same,glycan array binding signal (z-score),[19],-0.151
same,glycan array binding signal (z-score),[20],-0.537
same,glycan array binding signal (z-score),[21],-0.243
same,glycan array binding signal (z-score),[22],-0.087
same,glycan array binding signal (z-score),[23],-0.217
same,glycan array binding signal (z-score),[24],-0.59
same,glycan array binding signal (z-score),[25],-0.48
same,glycan array binding signal (z-score),[26],-0.206
same,glycan array binding signal (z-score),[27],-0.413
same,glycan array binding signal (z-score),[28],-0.414
same,glycan array binding signal (z-score),[29],0.073
same,glycan array binding signal (z-score),[30],0.323
same,glycan array binding signal (z-score),[31],-0.077
same,glycan array binding signal (z-score),[32],-0.445
same,glycan array binding signal (z-score),[33],0.004
same,glycan array binding signal (z-score),[34],-0.215
same,glycan array binding signal (z-score),[35],-0.2
same,glycan array binding signal (z-score),[36],-0.2
